Data: the supplement of paper PMC3334620
Whole data set: some 33,000 sequences, median “E-score (-0.5 to 0.5)” near -0.035, cut for the highest 2% near 0.34. The list shows a part of the results.

molecular target: T1, Mot3 (UniProt P54785); assay: PBM E-score (8-mer binding enrichment) (E-score (-0.5 to 0.5)); higher = stronger / more preferred TF binding; most listed sequences are background and not binding sites; settings: protein concentration: 200 nM; construct: GST-full length
T1 sequence: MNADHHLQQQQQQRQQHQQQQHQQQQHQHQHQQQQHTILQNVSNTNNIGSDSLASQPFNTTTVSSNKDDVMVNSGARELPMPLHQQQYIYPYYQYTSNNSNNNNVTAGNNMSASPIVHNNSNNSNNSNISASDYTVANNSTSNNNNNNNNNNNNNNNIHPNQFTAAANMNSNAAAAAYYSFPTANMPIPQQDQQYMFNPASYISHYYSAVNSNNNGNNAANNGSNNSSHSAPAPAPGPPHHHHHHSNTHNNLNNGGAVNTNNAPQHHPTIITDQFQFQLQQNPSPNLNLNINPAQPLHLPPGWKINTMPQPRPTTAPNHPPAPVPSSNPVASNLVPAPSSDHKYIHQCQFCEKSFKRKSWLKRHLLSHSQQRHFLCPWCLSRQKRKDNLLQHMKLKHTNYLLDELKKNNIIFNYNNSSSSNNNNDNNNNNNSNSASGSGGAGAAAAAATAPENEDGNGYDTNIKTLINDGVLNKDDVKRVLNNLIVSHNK
Summary of the method: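 Each ungapped eight-base word and its reverse complement, pooled, received an E-score from the Universal PBM Analysis Suite. Underlying scans, normalised with masliner, recorded fluorescent anti-GST bound to GST-tagged yeast transcription factors. These were applied at about 100-200 nM to universal all-10-mer Agilent arrays double-stranded by primer extension.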

Row | Sequence | PBM E-score
1 | AAAAAGGA | 0.145
2 | ATATTAAA | 0.184
3 | CTTTACGA | 0.139
4 | CGGTACCA | -0.331
5 | CGAAGTAG | -0.037
6 | AAGTCCTG | -0.164
7 | TAAGGTGA | -0.0657
8 | ACGCAGGC | 0.234
9 | AGCCACCG | -0.36
10 | CTAGGTCC | -0.291
11 | GGGTGCCA | -0.367
12 | TGCTCCCA | -0.0924
13 | AATCTTTG | 0.136
14 | GCAGCTGA | -0.0519
15 | CTACAAAA | 0.06
16 | AGGTAAAA | 0.303
17 | TTGTACAA | 0.3
18 | GCGACAGA | -0.224
19 | GAACACCC | -0.123
20 | ACCTGGAC | -0.129
21 | AGTAAAGA | 0.121
22 | AATTTATC | 0.15
23 | AAAACTAT | -0.0128
24 | CAAGACAA | -0.0139
25 | CTAGATAC | -0.0863

Row | Sequence | PBM E-score
26 | AATCGGAG | -0.197
27 | CAAAACAG | 0.0113
28 | CTGGTACA | 0.137
29 | GGGGACTA | -0.103
30 | GAAAGGCC | -0.0302
31 | GGGAACCA | -0.175
32 | ATGGTTTG | -0.13
33 | GAAGTCGA | 0.0161
34 | GATTCCCC | -0.259
35 | AACTGTTG | -0.108
36 | GCTCTCAA | -0.101
37 | AGCCAAGC | -0.237
38 | ATAGCAGA | 0.0946
39 | AAGCCGCA | -0.198
40 | AACCCGCA | -0.123
41 | AGGCTTGG | -0.241
42 | ACATAGTC | 0.203
43 | GAGTCGAC | -0.0875
44 | ATAAATCG | -0.0995
45 | AGAAAGTC | -0.0673
46 | GACAAGCC | 0.0255
47 | ACCCTGCT | -0.153
48 | CGTCGACA | 0.0801
49 | ACTCTCAG | -0.0221
50 | CCATGAGC | -0.245

Row | Sequence | PBM E-score
51 | CTCCGAAC | -0.132
52 | ATGTGTTG | 0.317
53 | CATACAAG | 0.0233
54 | GGAATTAA | 0.113
55 | GGTCAGAA | -0.131
56 | CCGGAAAC | -0.134
57 | ACTCAGCA | 0.026
58 | CTCGTCGC | -0.139
59 | AGGTCAAA | 0.0674
60 | CTCCCAAC | -0.249
61 | ATAGCGAG | -0.032
62 | GACAGGGC | -0.0734
63 | GACTGGGA | -0.123
64 | CGAGTGAG | -0.143
65 | GTCTTCGA | -0.186
66 | ACCTGTGC | 0.166
67 | GGTTGCTA | -0.26
68 | GCGTCATA | 0.142
69 | AGAACACT | 0.0286
70 | CTACCAAA | -0.0856
71 | AAGAGTGA | 0.115
72 | TCTCCAGA | -0.178
73 | AGTTAGCA | -0.0464
74 | ACTATACG | 0.0406
75 | ATAGGCAC | 0.491

Row | Sequence | PBM E-score
76 | AGCGGTAA | 0.138
77 | AATGCATA | 0.00014
78 | AATAAAGA | 0.0295
79 | ACAATAGG | 0.145
80 | ACCAGAGG | -0.00904
81 | TCGTCTAA | -0.108
82 | CCGGGATC | -0.21
83 | GACTCCTC | -0.213
84 | AGAGGCCA | -0.274
85 | AGTGCGAG | -0.295
86 | ATAGTCTG | -0.00799
87 | CGTATCTC | -0.0845
88 | ATCGTGGG | -0.0544
89 | TGTCCCAA | -0.142
90 | AGCCCGAT | -0.195
91 | GAGCGAGC | -0.188
92 | ATACGATG | 0.143
93 | AGGGCAAG | 0.13
94 | GCTTCGCA | -0.185
95 | AACAGGGG | -0.0517
96 | ACTTCAAG | 0.103
97 | ACTGTCTA | 0.097
98 | ACGTATGG | 0.0794
99 | CAAACCGA | -0.0256
100 | GTGAAGGA | 0.239

Row | Sequence | PBM E-score
101 | CACAGCCC | 0.0336
102 | ACGAAAAT | 0.163
103 | AAAAATTT | -0.0273
104 | GCAAAGAA | 0.0209
105 | ATGAACAC | 0.146
106 | AGGGAGCG | -0.293
107 | ATGCCTTC | 0.36
108 | AGCGGTTA | -0.136
109 | CTGGTGTA | 0.0826
110 | CCATCTCG | -0.251
111 | ACGATTGG | -0.0617
112 | ATATTCAT | 0.116
113 | CATACCGG | -0.15
114 | CCGTTGAC | -0.234
115 | ACCGTCTC | 0.0553
116 | ATGTAAAA | 0.415
117 | CCTTTCCC | -0.0301
118 | ACACCTAC | 0.176
119 | AAAGATCA | 0.07
120 | ATCAAGGA | 0.216
121 | ACCGACCA | 0.108
122 | ATTCATAC | 0.048
123 | AACCATCA | -0.0787
124 | CTAAAAAA | 0.0674
125 | ATGAGTGC | -0.0961

Row | Sequence | PBM E-score
126 | ATGCAAAT | 0.146
127 | GATTTTAA | 0.0698
128 | ACAACAGG | 0.287
129 | ATGGATTG | 0.0625
130 | CTTATCAA | -0.00458
131 | CTCTTATC | 0.0302
132 | CAAGGTAA | 0.258
133 | AAAATCAG | 0.137
134 | GGCTGGCA | -0.198
135 | AGAGAAGC | -0.0484
136 | AGTACTAC | 0.121
137 | GCTCTACA | 0.197
138 | CGCGGAAC | -0.151
139 | GGCGACAA | -0.238
140 | ACAGCCAA | 0.051
141 | CAGGGCGC | -0.199
142 | TCAGTCAA | 0.0421
143 | GATTGCGC | -0.0751
144 | AGCGGAGA | -0.201
145 | CCCTAAGG | -0.0438
146 | AGTGTAAG | 0.00213
147 | ACAAGGGC | 0.0718
148 | ATGGAGAG | -0.0951
149 | CGAGGCCA | -0.12
150 | CATAGCTA | -0.137

Row | Sequence | PBM E-score
151 | GTCGGATA | -0.132
152 | ACTATATC | 0.149
153 | CCCGTGAC | -0.083
154 | AATCTCCT | 0.0723
155 | GGGGACCC | -0.217
156 | AGGCGACG | 0.111
157 | CAACGTTC | 0.122
158 | ATTTCACC | 0.138
159 | TACCCCGA | -0.0828
160 | GTACAAAA | 0.272
161 | ACTCAAGG | -0.0601
162 | ATCGTGTG | 0.204
163 | CTGTTGAA | 0.0523
164 | AGGTTGGA | -0.173
165 | CTTTCCTA | 0.399
166 | ACAGGCCA | 0.296
167 | ACTTTAAC | 0.185
168 | ACTGGTTA | 0.127
169 | ATTTTGGC | -0.0528
170 | AGAAGTAG | -0.102
171 | CAGTTGTA | 0.00216
172 | CGTCAATC | 0.0322
